Measurements as given in publication PMC4336329 (PLoS ONE, 2015).
In all, about 310,000 compounds went through this assay and about 2,200 (0.71%) showed an effect of 50% or more. The effect is printed as a negative number. This is one part of the list.

What follows are compounds tested against human ether-à-go-go-related gene (hERG) potassium channel (human, UniProt Q12809) (assay: primary screen, population patch clamp on CHO cells stably expressing hERG).
Sequence of human ether-à-go-go-related gene (hERG) potassium channel (Q12809 whole entry, looked up): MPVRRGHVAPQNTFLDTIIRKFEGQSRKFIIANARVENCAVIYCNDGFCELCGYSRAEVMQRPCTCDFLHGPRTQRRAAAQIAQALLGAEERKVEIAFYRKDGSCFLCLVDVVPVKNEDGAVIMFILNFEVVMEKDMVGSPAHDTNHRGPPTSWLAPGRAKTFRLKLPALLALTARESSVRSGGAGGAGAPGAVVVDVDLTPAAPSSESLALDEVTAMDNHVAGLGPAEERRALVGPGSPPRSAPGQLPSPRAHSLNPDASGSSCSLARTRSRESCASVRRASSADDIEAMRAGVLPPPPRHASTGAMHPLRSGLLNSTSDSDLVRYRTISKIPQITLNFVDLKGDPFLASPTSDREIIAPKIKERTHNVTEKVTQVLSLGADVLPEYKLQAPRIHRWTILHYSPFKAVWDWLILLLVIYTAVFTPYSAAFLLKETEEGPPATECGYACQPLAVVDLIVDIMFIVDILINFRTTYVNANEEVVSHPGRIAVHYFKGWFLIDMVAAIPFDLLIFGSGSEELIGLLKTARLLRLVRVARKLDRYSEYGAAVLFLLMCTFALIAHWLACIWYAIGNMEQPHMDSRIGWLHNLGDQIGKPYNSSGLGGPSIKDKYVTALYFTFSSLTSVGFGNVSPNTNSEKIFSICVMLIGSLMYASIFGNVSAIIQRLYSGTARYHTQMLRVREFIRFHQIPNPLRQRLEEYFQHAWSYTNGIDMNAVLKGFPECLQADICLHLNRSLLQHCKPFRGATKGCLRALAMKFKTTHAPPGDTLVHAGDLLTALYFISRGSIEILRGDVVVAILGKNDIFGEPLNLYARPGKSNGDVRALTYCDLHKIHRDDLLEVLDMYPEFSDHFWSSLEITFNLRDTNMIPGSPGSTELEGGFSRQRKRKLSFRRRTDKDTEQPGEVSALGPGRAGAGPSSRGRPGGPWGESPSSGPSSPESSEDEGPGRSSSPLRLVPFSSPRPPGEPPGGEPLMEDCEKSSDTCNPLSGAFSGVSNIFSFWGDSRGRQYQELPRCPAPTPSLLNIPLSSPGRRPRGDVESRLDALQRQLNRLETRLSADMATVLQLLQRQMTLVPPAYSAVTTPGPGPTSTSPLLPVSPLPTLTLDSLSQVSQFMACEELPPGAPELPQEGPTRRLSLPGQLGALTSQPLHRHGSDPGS

SMILES | hERG current change (%, negative = inhibition) at 1uM [%]
Cc1ccccc1C(=O)Nc1ccccn1 | 6.21
COc1nc(Nc2ccccc2F)nc(OC)n1 | 1.13
CCN(CC)CCCN(Cc1cc2cc(OC)ccc2[nH]c1=O)C(=O)Nc1ccc(F)cc1 | -47.6
O=C(COc1ccccc1)NCC(=O)N/N=C/c1ccco1 | 4.57
Cc1onc(-c2ccccc2)c1C(=O)Nc1ccc(NC(=O)c2c(-c3ccccc3)noc2C)cc1 | 11.6
COc1cccc(NC(=O)N2CCC(n3nnc4ccccc43)CC2)c1 | 2.9
COC(=O)c1c(NC(=O)COC(=O)CCS(=O)(=O)c2ccc(C)cc2)sc(C)c1C | 8.77
CCC(C)(C)NC(=O)c1cc(OC)c(OC)cc1[N+](=O)[O-] | 17.2
Cl.O=C(Cn1cc(CCO)nn1)N1CCNCC1 | 3.54
O=C(CCl)N1CCN(S(=O)(=O)c2ccc3c(c2)CCC3)CC1 | 0.771
COc1ccc(CCN(Cc2cc3cccc(C)c3[nH]c2=O)C(=O)N2CCCC2)cc1OC | 0.211
Cc1nn(CC(C)C)c2sc(C(=O)NC3CC(C)(C)NC(C)(C)C3)cc12 | 13.7
CSCCC(NS(=O)(=O)c1ccc2c(c1)oc(=O)n2C)C(=O)NC1CCC(C)CC1 (centres unmarked) | 5.51
Cn1c(=O)cc(OCCCC(=O)NCc2ccccn2)c2ccccc21 | 3.38
Cc1ccc(C)c(N2CCN(S(=O)(=O)c3c(C)[nH]c(C)c3C(=O)N3CCCCC3)CC2)c1 | 6.85
CC(C)CCNC(=O)c1ccccc1SCC(=O)NC1CCCCCCC1 | 9.06
COc1ccc(C)cc1S(=O)(=O)N1CCOCC1 | 10.7
CCN(C(N)=S)c1ccccc1 | 5.53
CN(C(=O)COC(=O)COc1ccc2ccccc2c1)c1c(N)n(Cc2ccccc2)c(=O)[nH]c1=O | 12.1
CCOc1ccc(NC(=O)CNC(=O)c2ccc([N+](=O)[O-])cc2)cc1 | 5.93
CCC(=O)c1c(NC(C)C)cc(C)oc1=O | 6.59
CCCCN(C(=O)c1ccc(Cl)c([N+](=O)[O-])c1)c1c(N)n(CCC)c(=O)[nH]c1=O | 7.07

SMILES | hERG current change (%, negative = inhibition) at 1uM [%]
C/C(=N/NC(=O)CSc1ccccn1)c1ccc([N+](=O)[O-])cc1 | -7.02
C=CCOc1ccc(C2/C(=C(\O)c3ccc4c(c3)CC(C)O4)C(=O)C(=O)N2CCN2CCOCC2)cc1OCC (centres unmarked) | 17.6
CCOC(=O)COc1c(C=O)cc(Br)cc1OC | -6.13
CC(C)(C)[C@H]1C=C(C(=O)NCc2nc3ccccc3[nH]2)O[C@@H](OCc2ccc(CO)cc2)C1 | 5.49
CCOC(=O)c1cccc(NC(=O)CCS(=O)(=O)c2ccc(Br)s2)c1 | 10.1
COc1cccc(NC(=O)CC(=O)c2ccccc2)c1 | 12.5
Cc1ccc2nc(C3CCCN(C(=S)Nc4ccccc4C)C3)[nH]c2c1 (centres unmarked) | 0.196
COc1ccc(S(=O)(=O)Cc2ccc(C(=O)NC3CCC(C)CC3)o2)cc1 (centres unmarked) | 4.35
CCO[C@@H]1OC(C(=O)O)=C[C@H](C2CC2)[C@H]1CCCO | 8.23
NC(=O)CC(NC(=O)Cc1cccc2ccccc12)c1ccc(NCCCN2CCCC2=O)c([N+](=O)[O-])c1 (centres unmarked) | 8.49
CN(CC(=O)Nc1ccc(OC(F)(F)F)cc1)C(=O)Cn1c(=O)cnc2ccccc21 | -9.89
COc1ccc(N(CC(=O)N2CCN(c3cccc(C)c3)C(C)C2)S(=O)(=O)c2c(C)n[nH]c2C)cc1 (centres unmarked) | 0.55
O=C(CN1CCN(c2ccccn2)CC1)NC(=O)NC1CCCCC1 | 10.2
O=C(/C=C/c1nc2ccccc2s1)N1CCCCCC1 | 5.56
CCc1ccccc1NC(=O)CNC(=O)c1ccc(-n2cncn2)c([N+](=O)[O-])c1 | 13.6
COCCCNC(=O)CNC(=S)N(Cc1cc(OC)c(OC)c(OC)c1)C1CCCC1 | 9.27
O=C(Nc1c(C(=O)N2CCOCC2)oc2ccccc12)c1ccccc1Cl | 8.34
NC(=O)c1cc(S(=O)(=O)N2CCCCC2)cs1 | 19.8
CC(=O)Nc1ccc(C2(c3ccc(NC(C)=O)cc3)NC(=O)c3ccccc32)cc1 | 12.1
O=C1NCCN1C(=O)c1ccccc1F | 9.39
CC(C)N(C(=O)CN1CCN(C(=O)C2COc3ccccc3O2)CC1)C(C)C (centres unmarked) | 11
CNC(=O)COc1coc(CN2CCN(c3ccc(OC)cc3)CC2)cc1=O | 7.69
